Results taken from ChEMBL document CHEMBL4888484, “Replenishing the malaria drug discovery pipeline: Screening and hit evaluation of the MMV Hit Generation Library 1 (HGL1) against asexual blood stage Plasmodium falciparum ,using a nano luciferase reporter read-out” (2022).
Screen size: about 150,000 compounds; about 540 (0.36%) showed an effect of 50% or more. Some of the results follow.

These molecules were tested on Plasmodium falciparum (assay: Primary screen in NF54 nanoGlo assay, in single point, at 2uM, 72h; a lower Z score goes with more inhibition). Settings: timepoint 72 hour.
Assay type: functional, Erythrocyte

Structure (SMILES) | % Inhibition | Z score
Cc1ccc2c(=O)c(-c3nc(-c4ccccc4C)no3)cn(CC(=O)N3CCc4ccccc4C3)c2n1 | -2% | 0.15
CC1CN(CC2CCCCO2)C(C)CO1 (centres undefined) | 7% | -0.83
O=C(c1cc(F)c(F)c(O)c1F)N1CCCCC1C1CCNC1 (centres undefined) | -6% | 1.15
O=C(NC(c1ccccc1)c1ccccc1)N1CC(N2C(=O)CCC2=O)C1 | 1% | -0.12
CCOC(=O)C1(Cc2ccc(Cl)cc2)CCN(C2CCCC2)CC1 | 1% | -0.19
C[C@H]1CN(C(=O)N(C)C)CCC1(F)F | -4% | 0.51
COc1ccc(CNC(=O)[C@H]2CN(C(=O)c3ccncc3)CC23CCCCC3)c(OC)c1 | 44% | -4.96
CC(C)=CCN1C[C@@H]2CC[C@H]1CN(C(=O)c1ccc(N3CCCC3=O)cc1)C2 | 4% | -0.44
CC[C@@H](CO)N1CCN(C(=O)Nc2ccc(C)s2)CC1 | -13% | 1.06
O=C(COC1CCCCC1)NCCCNC(=O)c1cccc(O)c1 | -21% | 4.25
NCCNCCOCCOc1cccc(Cl)c1Cl | -9% | 1.17
CCC(CC)n1nc(C(=O)NCC23CCCN2CCC3)cc1C | -15% | 2.13
CCC(C)NC(=O)C1CCCN1c1nnc(N2CCCC2=O)s1 (centres undefined) | -6% | 0.95
COc1ccc(-c2noc(-c3cnn(CC4CC4)c3)n2)cc1OC | -2% | 0.36
CC[C@H]1CCC[C@@H](C)N1C(=O)c1occc1C(C)C | -4% | 0.59
COc1ccc(CCN(Cc2ccco2)C(=O)CN(C(=O)c2ccccc2OC)C(C)C)cc1OC | 8% | -1.04
CC(C)CC1(CNC(=O)c2ccncc2O)CCC1 | 3% | -0.35
COc1cc(-c2nc(CN3CCC[C@](C)(O)C3)c(C)o2)cc2c1OCO2 | 7% | -0.94
CC(C)C1CCC(C(=O)N[C@@H](Cc2ccccc2)C(=O)Nc2cnn(C)c2)CC1 (some centres undefined) | 1% | -0.19
Cn1ccnc1CC[C@H]1CCCCN1C(=O)c1ccc2ncsc2c1 | -12% | 2.2
Cc1n[nH]c(C(=O)N[C@H]2C[C@H](c3cc(=O)[nH]cn3)C2)c1Cl | -14% | 2.86

Structure (SMILES) | % Inhibition | Z score
CO[C@H]1COC[C@@H]1Nc1ncnc(Oc2cccnc2C)c1C | -4% | 0.82
Cc1ccc2c(c1)Oc1cc(Oc3ccc(Cl)cc3)c(S(=O)(=O)N3CCCCC3)cc1C(=O)N2 | -4% | 0.54
O=C([C@H]1C2CCC(CC2)[C@@H]1C(F)(F)F)N1CCn2c(n[nH]c2=O)C1 | 0% | 0.02
COc1ccc(-c2ccno2)cc1S(=O)(=O)N1C[C@H]2CC=CC[C@H]2C1 | -7% | 1.48
C[C@@H](c1ccccc1)n1ccc(NC(=O)c2[nH]nc3c2CCCC3)n1 | -6% | 1.01
c1ccc2cc(-c3ccc4ccccc4n3)ccc2c1 | 41% | -1.59
CCCOc1ccc([C@H]2OCCn3c(-c4ccccc4)c4c(=O)n(C)c(=O)n(C)c4c32)cc1 | 5% | -0.89
CCOC(=O)C1CCCN(C2CCN(C3CCC(=O)N(Cc4ccc(Cl)cc4)CC3)CC2)C1 (centres undefined) | -7% | 0.87
CCC[C@H](O)C(=O)N1CCC2(CCN(C)C2=O)CC1 | -2% | 0.37
CC(C)COc1ncccc1C(=O)NCc1cccc(-c2nc(-c3ccncc3)no2)c1 | 1% | -0.18
CC(C)N1CCN(C(=O)Nc2nnc(C3CC3)s2)CC1 | -11% | 1.44
O=C(Nc1ccn(CCc2ccncc2)n1)C1CC1c1ccccc1 (centres undefined) | 0% | 0.05
CCn1nnc2cc(C(=O)N3CCN(S(=O)(=O)c4ccc(C)cc4)CC3)ccc21 | -5% | 0.51
N#CCCN(C(=O)c1cc(S(=O)(=O)N2CCCCC2)ccc1Cl)c1ccccc1 | -4% | 0.62
Cc1cccc([C@H](C)NC(=O)c2oc(C)nc2C)n1 | -14% | 2.59
CCn1c(C2CCC2)nnc1N1C[C@H](C)OC2(CCC2)C1 | 6% | -0.8
CNC(=O)C1CCCC1Nc1nc(C)c2ccccc2n1 (centres undefined) | 21% | -2.69
CC1(C)CCc2nnc([C@@H]3Cc4ccccc4O3)n2C1 | -6% | 0.86
O=C(CCc1ccc(Br)cc1)NC1CCCC1C(=O)O (centres undefined) | -8% | 1.15
CC(C)C(NC(=O)NCCC1CCCO1)c1ccccn1 (centres undefined) | -9% | 1.12
Cc1ccc(NC(=O)Cn2nc3c(N4CCCCC4)nc4ccccc4n3c2=O)cc1 | -1% | 0.09
